{"source": "PubChem BioAssay AID463173", "about": "(ICCB-Longwood Screening Facility, Harvard Medical School, 2010)", "note": "Screen size: about 52,000 compounds; about 1,700 (3.3%) were called active. No stated cut-off is given here; in the data, active means survival mostly below about 52% (no sharp cut-off); inactive means mostly above about 56%. The list shows a part of the results."}
{"system": "Wild type", "test": "S. aureus survival, RN4220 and DeltatarO strains – OD600, teichoic acid synthesis inhibitors, primary screen (AID 463173)", "conditions": "S. aureus RN4220 wild type/DeltatarO growth, OD600, 18 h, active compounds read low, screened at 18.75 µg/mL (by protocol)"}
{"smiles": "Cc1ccc(C)c(N2CCN(C(=O)c3cc4c(=O)oc5ccccc5c4s3)CC2)c1", "survival": "inactive: 76%"}
{"smiles": "O=C(Cn1c(=O)n(-c2ccccc2)c(=O)c2ccc(C(=O)NCc3ccc4c(c3)OCO4)cc21)Nc1ccc(Br)cc1", "survival": "inactive: 74%"}
{"smiles": "Cc1nc(SCC(=O)Nc2nsc(-c3ccc(C(C)(C)C)cc3)n2)c2c3c(sc2n1)CCCC3", "survival": "inactive: 92%"}
{"smiles": "COc1ccc(N2CCN(S(=O)(=O)CCNC(=O)Cc3ccc(OC)c(OC)c3)CC2)cc1", "survival": "inactive: 69%"}
{"smiles": "CN(CCO)Cc1ccc2c(c1)OCO2", "survival": "inactive: 121%"}
{"smiles": "CCN(C(=O)CSc1nc(-c2ccccc2)no1)c1ccccc1", "survival": "inactive: 85%"}
{"smiles": "COc1ccc2c(c1)N(C)/C(=C1/SC(=Nc3ccc(C)cc3)N(C)C1=O)S2", "survival": "inactive: 110%"}
{"smiles": "CC(=O)Nc1ccc(Nc2c3c(c(C#N)c4nc5ccccc5n24)CCC3)cc1", "survival": "inactive: 100%"}
{"smiles": "COC(=O)c1ccc(NC(=O)CCc2c(C)nc3c(c(C)nn3C(C)(C)C)c2C)cc1", "survival": "inactive: 83%"}
{"smiles": "O=S(=O)(Nc1ccc(-c2nc3ccccc3o2)cc1)c1ccccc1", "survival": "inactive: 94%"}
{"smiles": "Cc1ccc2occ(-c3cc(-c4ccc(F)cc4)nc4c3COc3ccc(F)cc3-4)c(=O)c2c1", "survival": "inactive: 76%"}
{"smiles": "CCOc1cc(NS(=O)(=O)c2ccc(OC)cc2)c(OCC)cc1NC(=O)CC", "survival": "inactive: 97%"}
{"smiles": "Cc1ccccc1CSc1nc(-c2cccc(F)c2)nc2c1Cc1c(CO)cnc(C)c1O2", "survival": "inactive: 85%"}
{"smiles": "COc1ccc(OC)c(CNC(=O)c2nn(C)c3c2CS(=O)(=O)c2ccccc2-3)c1", "survival": "inactive: 81%"}
{"smiles": "CN(C)C(=O)c1ccc2c(c1)N(CC(=O)NCc1ccccc1Cl)C(=O)C1CCCCN21", "note": "(stereo not given)", "survival": "inactive: 71%"}
{"smiles": "CC1(C)OC2C(CO)OC(n3ncc(=O)[nH]c3=O)C2O1", "note": "(stereo not given)", "survival": "inactive: 100%"}
{"smiles": "COc1ccc(Cn2nnnc2C(c2ccccn2)N2CCc3ccccc3C2)cc1", "note": "(stereo not given)", "survival": "inactive: 94%"}
{"smiles": "CC(=O)Nc1ccc(Nc2ncnc3c2cnn3C)cc1", "survival": "inactive: 78%"}
{"smiles": "CCOc1ccccc1CNC(=O)c1oc2c(c1C)-c1[nH]ncc1CC2", "survival": "inactive: 109%"}
{"smiles": "CC1CCN(c2ncnc3c2c(-c2ccccc2)cn3-c2ccc(Br)cc2)CC1", "survival": "inactive: 72%"}
{"smiles": "CCCN(CCC)C(=O)Cn1c(=O)n(CCCCCC(=O)NCc2ccc3c(c2)OCO3)c(=O)c2sccc21", "survival": "inactive: 90%"}
{"smiles": "Cc1ccc(C)n1-c1nnc(N2CCCC(C(=O)Nc3ccccc3Br)C2)s1", "note": "(stereo not given)", "survival": "inactive: 117%"}
{"smiles": "CCOC(=O)c1c(NC(=O)c2cc(OC)c(OC)c(OC)c2)sc2c1CCCC2", "survival": "inactive: 89%"}
{"smiles": "O=C(CSc1nnc(-c2ccc(Cl)cc2)o1)c1ccc(Cl)cc1", "survival": "inactive: 115%"}
{"smiles": "O=C(CN1C(=O)C2(SCC(=O)N2c2cccc(Cl)c2)c2ccccc21)NCc1ccccc1", "note": "(stereo not given)", "survival": "inactive: 102%"}
{"smiles": "CC(C)(C)c1ccc(OCC(=O)NCC2(N3CCOCC3)CCCCC2)cc1", "survival": "inactive: 105%"}
{"smiles": "COc1ccc(NC(=O)CCCn2c(=O)c3cccn3c3cccnc32)cc1Cl", "survival": "inactive: 86%"}
{"smiles": "COc1ccc(-c2cn3nc(N4CCC(C(=O)Nc5cc(Cl)ccc5C)CC4)sc3n2)cc1", "survival": "inactive: 77%"}
{"smiles": "COc1ccccc1-c1cc2nc(C)c(CCC(=O)NCCc3cccc(C)c3)c(C)n2n1", "survival": "inactive: 74%"}
{"smiles": "Cc1ccc(NC(=O)Cn2cnc3onc(-c4ccc(F)cc4)c3c2=O)c(Cl)c1", "survival": "inactive: 105%"}
{"smiles": "Cc1ccc(NC(=O)c2cc3ccccn3n2)cc1F", "survival": "inactive: 88%"}
{"smiles": "O=C(CCCCCn1c(=O)c2sccc2n(CC(=O)Nc2cc(C(F)(F)F)ccc2Cl)c1=O)NCc1ccccc1Cl", "survival": "inactive: 74%"}
{"smiles": "CCc1cccc(-n2c(=O)c3cccnc3n2CC(=O)NCc2ccc(C)cc2)c1", "survival": "inactive: 85%"}
{"smiles": "C#CCN1CCc2cc(OC)c(OC)cc2C1C", "note": "(stereo not given)", "survival": "inactive: 104%"}
{"smiles": "Cc1cccc(CC(=O)Nc2ccc3nc(N4CCC(C)CC4)cc(C)c3c2)c1", "survival": "inactive: 44%"}
{"smiles": "Cc1ccc(Cl)cc1N1CCN(C(=O)CSc2cc(=O)n(C)c3ccccc23)CC1", "survival": "inactive: 64%"}
{"smiles": "CC1=C(C(=O)Nc2cc(Cl)ccc2C)C(c2sccc2C)n2ncnc2N1", "note": "(stereo not given)", "survival": "inactive: 47%"}
{"smiles": "CC(Oc1ccc(Cl)cc1Cl)C(=O)NNc1nc(Cl)nc(N(C)C)n1", "note": "(stereo not given)", "survival": "inactive: 107%"}
{"smiles": "C=CCn1c(NC(=O)CC)nc2ccccc21", "survival": "inactive: 90%"}
{"smiles": "O=C(Nc1nc2ccc(F)cc2s1)c1nc(S(=O)(=O)Cc2ccccc2F)ncc1Cl", "survival": "inactive: 87%"}
{"smiles": "Cc1cc(C)c(NC(=O)Cn2c(=O)n(CCC(=O)NCc3ccccc3Cl)c(=O)c3sccc32)c(C)c1", "survival": "inactive: 104%"}
{"smiles": "CC(C)(C)c1ccc2c(c1)N(CC(=O)NCCCN1CCN(c3ccccc3F)CC1)C(=O)CO2", "survival": "inactive: 81%"}
{"smiles": "Cc1ccc(N)cc1N(C)C", "survival": "inactive: 93%"}
{"smiles": "O=C(CSc1cn(CCNC(=O)c2cccc(C(F)(F)F)c2)c2ccccc12)Nc1ccc2c(c1)OCCO2", "survival": "inactive: 73%"}
{"smiles": "COc1ccc(C(=O)Nc2ccc3nc(SCC(=O)N(C)c4ccccc4)sc3c2)cc1", "survival": "inactive: 113%"}
{"smiles": "CSc1ncc(C(=O)NCc2ccc(C)cc2)c(C)n1", "survival": "inactive: 73%"}
{"smiles": "CC(C)N(C(=O)Cn1cc(S(=O)(=O)Cc2ccc(Br)cc2)c2ccccc21)C(C)C", "survival": "inactive: 80%"}
{"smiles": "O=C(c1ccc(F)cc1)N1CCC(c2nc3ccccc3s2)CC1", "survival": "inactive: 90%"}
{"smiles": "COc1ccc(NC2=C(c3ccccc3)C(=O)c3ccccc32)cc1Cl", "survival": "inactive: 144%"}
{"smiles": "CC1CCN(S(=O)(=O)c2ccc3c(c2)N(CC(=O)NCCCN2CCCCC2)C(=O)CS3)CC1", "survival": "inactive: 75%"}
{"smiles": "Cc1ccc(CNC(=O)c2cc(-c3ccc(C)cc3)nc3n[nH]c(-c4cccc([N+](=O)[O-])c4)c23)cc1", "survival": "inactive: 74%"}
{"smiles": "Cc1c(C(=O)Nc2ccc(F)c(C(F)(F)F)c2)sc2nc(-c3ccccc3)cn12", "survival": "inactive: 119%"}
{"smiles": "CCOc1ccc(S(=O)(=O)NCCc2c(C)[nH]c3c(Cl)cccc23)cc1C", "survival": "inactive: 51%"}
{"smiles": "COc1ccc(CNC(=O)c2ccc3c(c2)N(Cc2c(F)cccc2Cl)C(=O)CS3)cc1", "survival": "inactive: 136%"}
{"smiles": "CCOC(=O)CSc1nc2ccc(NC(=O)c3cccc(F)c3)cc2s1", "survival": "inactive: 87%"}
{"smiles": "NC(=O)COc1ccc(/C=N/NC(=O)c2ccc(CN3CCOCC3)cc2)cc1", "survival": "inactive: 101%"}
{"smiles": "O=C(CCn1cccn1)Nc1ccc(Br)cc1F", "survival": "inactive: 78%"}
{"smiles": "Cc1cccc(-c2nc3c4ccccc4nc(NCCc4ccccc4)n3n2)c1", "survival": "active: 3%"}
{"smiles": "CCOc1ccc(NS(=O)(=O)c2ccc3[nH]c4c(c3c2)CCCCC4)cc1", "survival": "inactive: 82%"}
{"smiles": "O=S(=O)(NCc1nc2cccnc2n1Cc1ccccc1Cl)c1ccc2c(c1)CCCC2", "survival": "inactive: 73%"}
{"smiles": "O=c1c(NCc2cccs2)nccn1-c1ccc(F)cc1", "survival": "inactive: 73%"}
{"smiles": "COc1cccc(NC(=O)CN(CCc2ccccc2)S(=O)(=O)c2ccc(Cl)cc2)c1", "survival": "inactive: 72%"}
{"smiles": "Cc1nc2ccccc2n1CCc1nc2c3ccccc3nc(SCc3ccc(C#N)cc3)n2n1", "survival": "inactive: 68%"}
{"smiles": "CCN(CC)CCCNC(=O)Cc1csc2nc(-c3ccc(Cl)cc3)cn12", "survival": "inactive: 115%"}
{"smiles": "CCOc1ccccc1NS(=O)(=O)c1ccc2c(c1)oc(=O)n2C", "survival": "inactive: 82%"}
{"smiles": "Cc1cc2c(n1-c1ccc(C(=O)NCc3ccccc3Cl)cc1)CCCC2", "survival": "inactive: 88%"}
{"smiles": "COc1ccccc1NC(=S)N(CCO)Cc1cc2cc3c(cc2[nH]c1=O)OCCO3", "survival": "inactive: 110%"}
{"smiles": "COc1ccccc1N1CCN(C(=O)c2c(C)oc3ncn(C)c(=O)c23)CC1", "survival": "inactive: 85%"}
{"smiles": "O=C(CCSCc1ccccc1Cl)NCc1ccc(F)cc1Cl", "survival": "active: 0%"}
{"smiles": "Cc1cccc(CCNC(=O)c2cc3c(=O)n(C)c4ccccc4c3n2C)c1", "survival": "inactive: 69%"}
{"smiles": "O=C(CN1C(=O)CCn2nc(-c3ccccc3)cc21)NCc1ccc(Cl)cc1", "survival": "active: -3%"}
{"smiles": "CCc1cc2c(cc3c(=O)n(CCCC(=O)NCc4cccc(Cl)c4)ncn32)s1", "survival": "inactive: 76%"}
{"smiles": "COc1ccc(NC(=O)NC2COc3ccccc3C2)cc1Cl", "note": "(stereo not given)", "survival": "inactive: 65%"}
{"smiles": "Cc1ccc(CN2C(=O)c3ccccc3CC2(C)C(=O)NC2CCCCC2)cc1", "note": "(stereo not given)", "survival": "inactive: 84%"}
{"smiles": "Cc1cccc(N2CCN(C(=O)c3noc4c3COc3ccc(C)cc3-4)CC2C)c1", "note": "(stereo not given)", "survival": "inactive: 80%"}
{"smiles": "CC(C)c1cnc2c(c1SCC(=O)NCc1ccccc1Cl)c(=O)n(C)c(=O)n2C", "survival": "inactive: 99%"}
{"smiles": "O=C(c1ccc2c(c1)N(Cc1cccc(F)c1)C(=O)c1ccccc1S2)N1CCCC1", "survival": "inactive: 92%"}
{"smiles": "COc1ccc(C(CC(=O)Nc2ccc(C(C)=O)cc2)N2Cc3ccccc3C2=O)cc1", "note": "(stereo not given)", "survival": "inactive: 88%"}
{"smiles": "Cc1cccc2c1-c1sc(C(=O)N(C)c3cccc(Cl)c3)cc1CO2", "survival": "active: 0%"}
{"smiles": "CCOc1ccccc1C(=O)NC1(C(F)(F)F)C(=O)Nc2c1c(=O)[nH]c(=O)n2-c1ccc(F)cc1", "note": "(stereo not given)", "survival": "inactive: 64%"}
{"smiles": "CSc1ccc(CCNC(=O)CCc2c(C)nc3ncnn3c2C)cc1", "survival": "inactive: 71%"}
{"smiles": "Cn1nnnc1SCCNCc1cc(Br)ccc1OCc1ccccc1Cl", "survival": "inactive: 59%"}
{"smiles": "COc1cccc(OC)c1C(=O)NCCc1csc(-c2ccc(Cl)cc2)n1", "survival": "inactive: 84%"}
{"smiles": "COC(=O)c1c(-c2cccs2)csc1NC(=O)COc1ccc(C)cc1", "survival": "inactive: 116%"}
{"smiles": "Cc1ccc(C(=O)Nc2cccc3cccnc23)cc1Cl", "survival": "inactive: 75%"}
{"smiles": "CCOc1ccc(NC(=O)COc2ccc(S(=O)(=O)NC3CCCCC3)cc2)cc1", "survival": "inactive: 60%"}
{"smiles": "CN1CCN(c2ncc3c(n2)CCN(Cc2ccc(Br)s2)C3)CC1", "survival": "inactive: 64%"}
{"smiles": "CCOC(=O)c1c(Nc2ccc(OC)cc2)nnc(-c2ccccc2)c1-c1ccccc1", "survival": "active: 5%"}
{"smiles": "COc1ccc(-c2csc(=Nc3ccccc3)n2CCO)cc1F", "survival": "inactive: 63%"}
{"smiles": "O=C(N/N=C/C=C/c1ccco1)c1cccs1", "survival": "inactive: 116%"}
